Results from PMC7076015.
These are yes or no findings as the source states them, for the method shown. Binding seen in cells or lysates may run through a third protein. Some entries that bind do so weakly or less than the wild type. For some of these results: Where a sequence is shown, tags or fusion partners need not be part of it.

Protein sequences, listed by entry. Tags and fused reporters are not part of them. Lines headed by an entry give the natural chain unless they say otherwise; changes in a name come on top.
UniProt A9QM74: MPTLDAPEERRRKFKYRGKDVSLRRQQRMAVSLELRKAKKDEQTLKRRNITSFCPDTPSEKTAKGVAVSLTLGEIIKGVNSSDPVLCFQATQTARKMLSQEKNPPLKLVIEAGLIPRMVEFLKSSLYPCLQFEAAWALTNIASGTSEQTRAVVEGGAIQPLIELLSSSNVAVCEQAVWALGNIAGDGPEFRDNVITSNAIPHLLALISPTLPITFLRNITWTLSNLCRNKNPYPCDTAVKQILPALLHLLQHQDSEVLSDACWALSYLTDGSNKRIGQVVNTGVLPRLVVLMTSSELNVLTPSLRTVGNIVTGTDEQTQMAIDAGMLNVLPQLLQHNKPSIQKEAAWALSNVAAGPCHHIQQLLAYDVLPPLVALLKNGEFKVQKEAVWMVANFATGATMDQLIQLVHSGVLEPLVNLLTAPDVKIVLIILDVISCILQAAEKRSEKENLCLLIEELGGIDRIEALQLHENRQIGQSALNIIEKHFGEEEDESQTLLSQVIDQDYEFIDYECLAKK

Experiments:
[1] = target: MBP-KPNA7 (wild type) (human) (UniProt A9QM74); experiment: pull-down; MBP and MBP-KPNA7 proteins on amylose resin, neuronal lysates from 4-week old 9429A hiPSC-derived neurons; western blot; only the target purified
MBP-KPNA7(P339A) (human) = MBP-KPNA7(P339A) (human) (UniProt A9QM74); experiment: as above
[2] = target: hnRNP U (endogenous, HEK293T) (human (endogenous in HEK293T)), Q00839; experiment: co-IP; hnRNP U antibody on protein G beads, HEK293T extract; western blot for hnRNP R; details: remark: other sources report otherwise
HA-KPNA7 (human) = HA-KPNA7 (human) (UniProt A9QM74); experiment: co-IP; anti-HA agarose, extracts of HEK293T and HEK293T(HA-KPNA7) cells transfected with Flag-hnRNP R constructs; Flag blot normalized to input

binding (HA-KPNA7 (human)) | Binder | further results
– | hnRNP R (endogenous, iPSC-derived neurons) (protein, UniProt O43390 1-633) MANQVNGNAVQLKEEEEPMDTSSVTHTEHYKTLIEAGLPQKVAERLDEIFQTGLVAYVDLDERAIDALREFNEEGALSVLQQFKESDLSHVQNKSAFLCGVMKTYRQREKQGSKVQESTKGPDEAKIKALLERTGYTLDVTTGQRKYGGPPPDSVYSGVQPGIGTEVFVGKIPRDLYEDELVPLFEKAGPIWDLRLMMDPLSGQNRGYAFITFCGKEAAQEAVKLCDSYEIRPGKHLGVCISVANNRLFVGSIPKNKTKENILEEFSKVTEGLVDVILYHQPDDKKKNRGFCFLEYEDHKSAAQARRRLMSGKVKVWGNVVTVEWADPVEEPDPEVMAKVKVLFVRNLATTVTEEILEKSFSEFGKLERVKKLKDYAFVHFEDRGAAVKAMDEMNGKEIEGEEIEIVLAKPPDKKRKERQAARQASRSTAYEDYYYHPPPRMPPPIRGRGRGGGRGGYGYPPDYYGYEDYYDDYYGYDYHDYRGGYEDPYYGYDDGYAVRGRGGGRGGRGAPPPPRGRGAPPPRGRAGYSQRGAPLGPPRGSRGGRGGPAQQQRGRGSRGSRGNRGGNVGGKRKADGYNQPDSKRRQTNNQQNWGSQPIAQQPLQQGGDYSGNYGYNNDNQEFYQDTYGQQWK | binding [1]: binds; binding (MBP-KPNA7(P339A) (human)): binds
– | hnRNP R (endogenous, HEK293T), O43390 1-633 (protein) MANQVNGNAVQLKEEEEPMDTSSVTHTEHYKTLIEAGLPQKVAERLDEIFQTGLVAYVDLDERAIDALREFNEEGALSVLQQFKESDLSHVQNKSAFLCGVMKTYRQREKQGSKVQESTKGPDEAKIKALLERTGYTLDVTTGQRKYGGPPPDSVYSGVQPGIGTEVFVGKIPRDLYEDELVPLFEKAGPIWDLRLMMDPLSGQNRGYAFITFCGKEAAQEAVKLCDSYEIRPGKHLGVCISVANNRLFVGSIPKNKTKENILEEFSKVTEGLVDVILYHQPDDKKKNRGFCFLEYEDHKSAAQARRRLMSGKVKVWGNVVTVEWADPVEEPDPEVMAKVKVLFVRNLATTVTEEILEKSFSEFGKLERVKKLKDYAFVHFEDRGAAVKAMDEMNGKEIEGEEIEIVLAKPPDKKRKERQAARQASRSTAYEDYYYHPPPRMPPPIRGRGRGGGRGGYGYPPDYYGYEDYYDDYYGYDYHDYRGGYEDPYYGYDDGYAVRGRGGGRGGRGAPPPPRGRGAPPPRGRAGYSQRGAPLGPPRGSRGGRGGPAQQQRGRGSRGSRGNRGGNVGGKRKADGYNQPDSKRRQTNNQQNWGSQPIAQQPLQQGGDYSGNYGYNNDNQEFYQDTYGQQWK | binding [2]: no binding
no binding | Flag-myc-hnRNP R AAA^572−574 (protein, UniProt O43390 1-633) MANQVNGNAVQLKEEEEPMDTSSVTHTEHYKTLIEAGLPQKVAERLDEIFQTGLVAYVDLDERAIDALREFNEEGALSVLQQFKESDLSHVQNKSAFLCGVMKTYRQREKQGSKVQESTKGPDEAKIKALLERTGYTLDVTTGQRKYGGPPPDSVYSGVQPGIGTEVFVGKIPRDLYEDELVPLFEKAGPIWDLRLMMDPLSGQNRGYAFITFCGKEAAQEAVKLCDSYEIRPGKHLGVCISVANNRLFVGSIPKNKTKENILEEFSKVTEGLVDVILYHQPDDKKKNRGFCFLEYEDHKSAAQARRRLMSGKVKVWGNVVTVEWADPVEEPDPEVMAKVKVLFVRNLATTVTEEILEKSFSEFGKLERVKKLKDYAFVHFEDRGAAVKAMDEMNGKEIEGEEIEIVLAKPPDKKRKERQAARQASRSTAYEDYYYHPPPRMPPPIRGRGRGGGRGGYGYPPDYYGYEDYYDDYYGYDYHDYRGGYEDPYYGYDDGYAVRGRGGGRGGRGAPPPPRGRGAPPPRGRAGYSQRGAPLGPPRGSRGGRGGPAQQQRGRGSRGSRGNRGGNVGGAAAADGYNQPDSKRRQTNNQQNWGSQPIAQQPLQQGGDYSGNYGYNNDNQEFYQDTYGQQWK | –
binds | Flag-myc-hnRNP R AAA^414−416 (protein, UniProt O43390 1-633) MANQVNGNAVQLKEEEEPMDTSSVTHTEHYKTLIEAGLPQKVAERLDEIFQTGLVAYVDLDERAIDALREFNEEGALSVLQQFKESDLSHVQNKSAFLCGVMKTYRQREKQGSKVQESTKGPDEAKIKALLERTGYTLDVTTGQRKYGGPPPDSVYSGVQPGIGTEVFVGKIPRDLYEDELVPLFEKAGPIWDLRLMMDPLSGQNRGYAFITFCGKEAAQEAVKLCDSYEIRPGKHLGVCISVANNRLFVGSIPKNKTKENILEEFSKVTEGLVDVILYHQPDDKKKNRGFCFLEYEDHKSAAQARRRLMSGKVKVWGNVVTVEWADPVEEPDPEVMAKVKVLFVRNLATTVTEEILEKSFSEFGKLERVKKLKDYAFVHFEDRGAAVKAMDEMNGKEIEGEEIEIVLAKPPDAAAKERQAARQASRSTAYEDYYYHPPPRMPPPIRGRGRGGGRGGYGYPPDYYGYEDYYDDYYGYDYHDYRGGYEDPYYGYDDGYAVRGRGGGRGGRGAPPPPRGRGAPPPRGRAGYSQRGAPLGPPRGSRGGRGGPAQQQRGRGSRGSRGNRGGNVGGKRKADGYNQPDSKRRQTNNQQNWGSQPIAQQPLQQGGDYSGNYGYNNDNQEFYQDTYGQQWK | –
no binding | Flag-myc-hnRNP R AAA^584−586 (protein, UniProt O43390 1-633) MANQVNGNAVQLKEEEEPMDTSSVTHTEHYKTLIEAGLPQKVAERLDEIFQTGLVAYVDLDERAIDALREFNEEGALSVLQQFKESDLSHVQNKSAFLCGVMKTYRQREKQGSKVQESTKGPDEAKIKALLERTGYTLDVTTGQRKYGGPPPDSVYSGVQPGIGTEVFVGKIPRDLYEDELVPLFEKAGPIWDLRLMMDPLSGQNRGYAFITFCGKEAAQEAVKLCDSYEIRPGKHLGVCISVANNRLFVGSIPKNKTKENILEEFSKVTEGLVDVILYHQPDDKKKNRGFCFLEYEDHKSAAQARRRLMSGKVKVWGNVVTVEWADPVEEPDPEVMAKVKVLFVRNLATTVTEEILEKSFSEFGKLERVKKLKDYAFVHFEDRGAAVKAMDEMNGKEIEGEEIEIVLAKPPDKKRKERQAARQASRSTAYEDYYYHPPPRMPPPIRGRGRGGGRGGYGYPPDYYGYEDYYDDYYGYDYHDYRGGYEDPYYGYDDGYAVRGRGGGRGGRGAPPPPRGRGAPPPRGRAGYSQRGAPLGPPRGSRGGRGGPAQQQRGRGSRGSRGNRGGNVGGKRKADGYNQPDSAAAQTNNQQNWGSQPIAQQPLQQGGDYSGNYGYNNDNQEFYQDTYGQQWK | –
binds | Flag-myc-hnRNP R (wild type) (protein, UniProt O43390 1-633) MANQVNGNAVQLKEEEEPMDTSSVTHTEHYKTLIEAGLPQKVAERLDEIFQTGLVAYVDLDERAIDALREFNEEGALSVLQQFKESDLSHVQNKSAFLCGVMKTYRQREKQGSKVQESTKGPDEAKIKALLERTGYTLDVTTGQRKYGGPPPDSVYSGVQPGIGTEVFVGKIPRDLYEDELVPLFEKAGPIWDLRLMMDPLSGQNRGYAFITFCGKEAAQEAVKLCDSYEIRPGKHLGVCISVANNRLFVGSIPKNKTKENILEEFSKVTEGLVDVILYHQPDDKKKNRGFCFLEYEDHKSAAQARRRLMSGKVKVWGNVVTVEWADPVEEPDPEVMAKVKVLFVRNLATTVTEEILEKSFSEFGKLERVKKLKDYAFVHFEDRGAAVKAMDEMNGKEIEGEEIEIVLAKPPDKKRKERQAARQASRSTAYEDYYYHPPPRMPPPIRGRGRGGGRGGYGYPPDYYGYEDYYDDYYGYDYHDYRGGYEDPYYGYDDGYAVRGRGGGRGGRGAPPPPRGRGAPPPRGRAGYSQRGAPLGPPRGSRGGRGGPAQQQRGRGSRGSRGNRGGNVGGKRKADGYNQPDSKRRQTNNQQNWGSQPIAQQPLQQGGDYSGNYGYNNDNQEFYQDTYGQQWK | –
